For one assay, the target named is T1, human Ang-2 (human, UniProt O15123 19-496, limits assumed).
T1 construct: also called hAng-2; huAng-2
T1 sequence (looked up): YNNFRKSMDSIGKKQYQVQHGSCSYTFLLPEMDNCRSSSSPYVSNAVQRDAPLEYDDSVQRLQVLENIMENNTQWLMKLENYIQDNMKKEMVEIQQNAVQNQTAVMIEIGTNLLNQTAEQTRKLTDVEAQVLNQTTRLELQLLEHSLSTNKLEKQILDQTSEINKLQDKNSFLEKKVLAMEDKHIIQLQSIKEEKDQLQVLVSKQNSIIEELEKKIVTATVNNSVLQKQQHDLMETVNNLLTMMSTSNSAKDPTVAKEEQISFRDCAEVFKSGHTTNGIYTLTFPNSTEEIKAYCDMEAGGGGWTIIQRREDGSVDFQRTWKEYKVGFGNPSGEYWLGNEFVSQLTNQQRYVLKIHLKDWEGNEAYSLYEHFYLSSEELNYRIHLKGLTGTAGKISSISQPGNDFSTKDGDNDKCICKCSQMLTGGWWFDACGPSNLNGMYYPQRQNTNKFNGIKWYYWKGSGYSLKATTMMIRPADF
In words: neutralization ELISA; Tie-2-Fc on coated hAng-2. For orientation: In an ELISA, binding on a coated surface is turned into a signal by an enzyme label.

In another assay the target is T2, murine Ang-2 (murine, UniProt O35608 19-496, limits assumed).
T2 construct: also called mAng-2
T2 sequence (looked up): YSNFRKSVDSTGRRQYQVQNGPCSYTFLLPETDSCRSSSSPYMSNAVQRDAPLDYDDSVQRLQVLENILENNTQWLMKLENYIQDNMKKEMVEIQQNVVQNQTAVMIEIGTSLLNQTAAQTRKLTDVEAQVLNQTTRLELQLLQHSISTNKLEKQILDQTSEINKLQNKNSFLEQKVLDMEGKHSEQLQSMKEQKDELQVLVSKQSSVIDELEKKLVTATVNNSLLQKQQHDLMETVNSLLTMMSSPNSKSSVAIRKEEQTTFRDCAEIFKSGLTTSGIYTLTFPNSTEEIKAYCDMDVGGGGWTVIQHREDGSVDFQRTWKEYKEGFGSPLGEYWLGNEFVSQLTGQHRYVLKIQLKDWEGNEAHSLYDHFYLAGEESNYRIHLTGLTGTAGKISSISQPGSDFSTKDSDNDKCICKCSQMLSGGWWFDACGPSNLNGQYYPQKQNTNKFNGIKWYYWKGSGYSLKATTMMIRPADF
Description: neutralization ELISA; Tie-2-Fc on coated mAng-2.

B1: 2xL1 (C) (Fc fusion)
chain: [human IgG1 Fc not written out]GGGGGAQKFNPLDELEETLYEQFTFQQGGGGGGGKFNPLDELEETLYEQFTFQQLE
notes: Peptibody
As usually defined, the IC50 is the concentration at which inhibition is half-maximal. Lower therefore signals greater potency in that assay. In the case of B1, the IC50 with human Ang-2 was 900 pM; in the assay with murine Ang-2 it was 1000 pM.

B2: 2xL1 (N) (Fc fusion)
chain: MGAQKFNPLDELEETLYEQFTFQQGGGGGGGKFNPLDELEETLYEQFTFQQLEGGGGG[human IgG1 Fc not written out]
notes: Peptibody
On to B2, for which the IC50 with human Ang-2 is 650 pM; with murine Ang-2 it was 800 pM.
